The other results are listed elsewhere or left out. Cleavage of a single-stranded DNA pool by Rep nickase domains was read by sequencing at 3 µM enzyme and 37 °C for 1 h; the strands have 90 letters, of which the middle is given. Uncut reads are compared with the no-enzyme pool on a log2 scale; uncut sequences lie near 0, cut ones below; no hit call is given. Counts are relative to all reads; where an enzyme cuts many sequences, the uncut ones exceed 0.
Assays:
Assay in all cases: uncleaved DNA left, log2 of reads against the no-enzyme library (log2 ratio); higher = less cleavage (more negative = more Rep cleavage of the k-mer); sequences stand for … in CTCGTCCG…ACCGGAGA
[1] = tested on: T1, Rep nickase domain of Muscovy duck circovirus
T1 sequence (Rep 1-111, printed without the tag): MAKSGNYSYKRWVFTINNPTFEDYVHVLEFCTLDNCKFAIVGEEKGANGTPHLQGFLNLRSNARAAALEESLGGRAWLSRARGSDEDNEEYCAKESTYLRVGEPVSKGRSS
Protocol: (§1)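 A pool of 90-nt single-stranded DNAs with seven random bases just before the constant AC of the nick site (name = the seven bases) was cut by 3 µM recombinant His6-SUMO-tagged Rep nickase domain (300 nM DNA, 50 mM HEPES pH 8.0, 50 mM NaCl, 1 mM MnCl2, 1 h, 37 °C, three replicates). Uncut DNA was amplified and sequenced.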

[2] = tested on: T2, Rep nickase domain of banana bunchy top virus
T2 sequence (Rep 1-94, printed without the tag): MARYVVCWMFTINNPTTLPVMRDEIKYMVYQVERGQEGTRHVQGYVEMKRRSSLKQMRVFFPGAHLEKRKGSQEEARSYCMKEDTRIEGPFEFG
Protocol: as §1

[3] = tested on: T3, Rep nickase domain of cabbage leaf curl virus
T3 sequence (Rep 1-116, printed without the tag): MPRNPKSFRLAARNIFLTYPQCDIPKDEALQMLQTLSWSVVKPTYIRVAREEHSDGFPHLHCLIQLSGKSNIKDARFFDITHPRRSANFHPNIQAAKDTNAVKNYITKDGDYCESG
Protocol: as §1

[4] = tested on: T4, Rep nickase domain of chickpea chlorotic dwarf virus
T4 sequence (Rep 1-124, printed without the tag): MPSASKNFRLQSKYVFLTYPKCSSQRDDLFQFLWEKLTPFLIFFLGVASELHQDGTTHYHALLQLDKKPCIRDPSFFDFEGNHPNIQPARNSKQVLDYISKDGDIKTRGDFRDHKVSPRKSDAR
Protocol: as §1

[5] = tested on: T5, Rep nickase domain of faba bean necrotic yellows virus
T5 sequence (Rep 1-98, printed without the tag): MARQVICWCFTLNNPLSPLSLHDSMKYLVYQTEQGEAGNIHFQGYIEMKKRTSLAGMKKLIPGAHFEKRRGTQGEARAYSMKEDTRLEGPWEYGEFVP
Protocol: as §1

[6] = tested on: T6, Rep nickase domain of maize striate mosaic virus
T6 sequence (Rep 1-117, printed without the tag): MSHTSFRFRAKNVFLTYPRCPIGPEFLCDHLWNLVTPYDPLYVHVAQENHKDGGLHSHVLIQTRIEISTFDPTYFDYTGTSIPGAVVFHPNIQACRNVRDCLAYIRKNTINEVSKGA
Protocol: as §1

[7] = tested on: T7, Rep nickase domain of porcine circovirus 2
T7 sequence (Rep 2-116, printed without the tag): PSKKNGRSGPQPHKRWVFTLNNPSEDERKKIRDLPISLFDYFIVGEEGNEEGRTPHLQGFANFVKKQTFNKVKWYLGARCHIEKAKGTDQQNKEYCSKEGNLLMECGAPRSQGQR
Protocol: as §1

[8] = tested on: T8, Rep nickase domain of tomato yellow leaf curl virus
T8 sequence (Rep 1-136, printed without the tag): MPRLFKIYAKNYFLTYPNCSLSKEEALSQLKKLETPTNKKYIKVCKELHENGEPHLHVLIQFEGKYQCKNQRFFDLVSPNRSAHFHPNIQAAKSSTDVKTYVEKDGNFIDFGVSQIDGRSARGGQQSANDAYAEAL
Protocol: as §1

[9] = tested on: T9, Rep nickase domain of wheat dwarf virus
T9 sequence (Rep 1-137, printed without the tag): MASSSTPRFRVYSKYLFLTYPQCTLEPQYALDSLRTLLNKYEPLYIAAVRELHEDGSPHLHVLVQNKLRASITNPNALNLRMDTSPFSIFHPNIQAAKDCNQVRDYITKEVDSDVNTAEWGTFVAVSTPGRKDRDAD
Protocol: as §1

Sequence	uncleaved DNA left (log2) [1]	uncleaved DNA left (log2) [2]	uncleaved DNA left (log2) [3]	uncleaved DNA left (log2) [4]	uncleaved DNA left (log2) [5]	uncleaved DNA left (log2) [6]	uncleaved DNA left (log2) [7]	uncleaved DNA left (log2) [8]	uncleaved DNA left (log2) [9]
ATCCTTT	-0.127	-0.214	-0.102	-2.23	-0.0295	-0.723	-1.49	-0.174	-0.122
GGGTCGT	-0.0374	-0.0309	0.838	1.88	-0.0109	2.21	0.126	-0.0404	0.0675
TAAAGTC	0.064	-0.0573	-2.22	-2.87	0.0588	-1.34	0.0911	-0.0253	-0.762
GCTAATC	0.0141	0.068	0.309	0.473	-0.0193	0.12	0.0778	0.0904	0.167
CCCATGA	0.0308	0.115	-0.0841	0.0751	0.199	-0.925	0.116	0.116	0.175
GTATGGT	-0.464	-0.0319	0.228	0.466	0.012	1.5	-0.19	0.0028	0.035
GGGAGTG	0.00762	-0.025	0.46	1.56	-0.029	1.86	0.103	-0.013	0.0394
TGGAAAC	0.00552	0.109	0.515	1.13	-0.0604	1.51	0.226	0.12	0.245
